Reference: the supplement of paper PMC4604168 (melanoma cell lines)
Some of the results follow. Most values come without repeats; read them as rough.

System: RVH-421
Test: cell count relative to DMSO control; melanoma cells; higher = more viable cells
Conditions: library dose: standard library concentration; 72 h
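Also: cells treated in 1,536-well plates, then fixed and DAPI-stained, with nuclei counted from automated high-throughput microscope images.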

SMILES | cell count [%]
CCCS(=O)(=O)Nc1ccc(F)c(C(=O)c2c[nH]c3ncc(Cl)cc23)c1F + C#Cc1cccc(Nc2ncnc3cc(OCCOC)c(OCCOC)cc23)c1 [erlotinib] (first compound 0.4 µM, partner dose 4 µM) | 78.2
C=C(c1ccc(C(=O)O)cc1)c1cc2c(cc1C)C(C)(C)CCC2(C)C [Bexarotene] + Nc1nc(F)nc2c1ncn2[C@@H]1O[C@H](CO)[C@@H](O)[C@@H]1O [fludarabine] (first compound 10 µM, partner dose 1 µM) | 101
CCCS(=O)(=O)Nc1ccc(F)c(C(=O)c2c[nH]c3ncc(Cl)cc23)c1F + O=C1NC(=O)/C(=C/c2ccc(-c3ccc(F)cc3O)o2)S1 [AS252424] (first compound 0.4 µM, partner dose 5 µM) | 74.3
NC1(c2ccc(-c3nc4ccn5c(=O)[nH]nc5c4cc3-c3ccccc3)cc2)CCC1 + Oc1nc(-c2ccc(C(F)(F)F)cc2)nc2c1CSCC2 [XAV939] (first compound 2 µM, partner dose 10 µM) | 96.3
CS(=O)(=O)c1ccc(C(=O)Nc2ccc(Cl)c(-c3ccccn3)c2)c(Cl)c1 [vismodegib] + O=C(O)C(=O)Nc1sc2c(c1C(=O)O)CCNC2 [TCS401] (first compound 5 µM, partner dose 8.33333 µM) | 137
CS(=O)(=O)c1ccc(C(=O)Nc2ccc(Cl)c(-c3ccccn3)c2)c(Cl)c1 [vismodegib] + Cn1c(Nc2ccc(C(F)(F)F)cc2)nc2cc(Oc3ccnc(-c4ncc(C(F)(F)F)[nH]4)c3)ccc21 [CHIR265] (first compound 5 µM, partner dose 0.4 µM) | 54.6
CN(c1ncccc1CNc1nc(Nc2ccc3c(c2)CC(=O)N3)ncc1C(F)(F)F)S(C)(=O)=O + COc1cc2ncnc(Nc3ccc(Oc4ccccc4)cc3)c2cc1OC [SrcI1] (first compound 0.4 µM, partner dose 10 µM) | 101
NC1(c2ccc(-c3nc4ccn5c(=O)[nH]nc5c4cc3-c3ccccc3)cc2)CCC1 + Oc1cc(-c2nc(-c3ccccc3)[nH]c2-c2ccncc2)ccc1Cl [L779450] (first compound 2 µM, partner dose 1 µM) | 72.4
CS(=O)(=O)c1ccc(C(=O)Nc2ccc(Cl)c(-c3ccccn3)c2)c(Cl)c1 [vismodegib] + C[C@]1(c2nc3c(C(N)=O)cccc3[nH]2)CCCN1 [Veliparib] (first compound 5 µM, partner dose 7 µM) | 88.3
